Measured values reported in the supplement of paper PMC10126150.
Values marked as one replicate rest on one cluster of the flow cell; about a third of the high ones do not repeat.

system: ATP; experiment: switch fluorescence ratio, 500 uM ATP over buffer (Cy3 cluster intensity, sum of 5 cycles each) (fold (ratio)); higher = stronger signal-on switching upon ATP binding; sequences stand for … in TCGTCGGCAGCGTCAGATGTGTATAAGAGACAGTTTTTTTTTTTTTTTTTTTTTTTTT…TC; conditions: aptamer strand: ATP DNA aptamer (quencher-CACCTGGGGGAGTATTGCGGAGGAAGG + anchor), 100 nM annealed; ATP concentration: 500 uM; one replicate
In short: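 Switching-strand clusters labelled with Cy3 on a modified Illumina MiSeq flow-cell were annealed to 100 nM quencher-labelled ATP aptamer, imaged in selection buffer, and re-imaged after 15 min with 500 uM ATP at 22 °C. This was done over five cycles with NaOH stripping and re-annealing in between. The fluorescence ratio is summed target-cycle over summed buffer-cycle Cy3 intensity per cluster, averaged per switch-domain sequence, excluding clusters outside 100-1000 RFU.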
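Note: ATP exposure 15 min at 22 °C before imaging.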

| Sequence | switch fluorescence ratio |
| --- | --- |
| TTGAATTTTT | 0.98 |
| TTGACAAGAA | 1 |
| TTGACAATTA | 1.26 |
| TTGACATTTG | 1.04 |
| TTGACCAGTT | 0.971 |
| TTGACCGGGC | 0.919 |
| TTGACCTAAG | 0.969 |
| TTGACTACCA | 1.16 |
| TTGACTAGTT | 0.983 |
| TTGACTTTCG | 1.03 |
| TTGAGAGCT | 1.02 |
| TTGAGATACC | 1.04 |
| TTGAGCCGAT | 0.943 |
| TTGAGGCAG | 0.994 |
| TTGAGGTGTT | 1.05 |
| TTGAGTCAGG | 1.06 |
| TTGAGTCGGG | 0.939 |
| TTGAGTGCGA | 0.948 |
| TTGAGTGGTG | 0.962 |
| TTGAGTTATG | 0.967 |
| TTGAGTTCCC | 0.995 |
| TTGAGTTGCT | 1.03 |
| TTGATAGGA | 1 |
| TTGATCGATT | 1.02 |
| TTGATGACCA | 1 |
| TTGATGCTAG | 0.997 |

| Sequence | switch fluorescence ratio |
| --- | --- |
| TTGATGGT | 0.978 |
| TTGATGTTTG | 0.984 |
| TTGATTTTC | 0.95 |
| TTGCAAGTGC | 1.45 |
| TTGCACAGTA | 1.05 |
| TTGCACGGAA | 1.11 |
| TTGCAGCCCA | 0.94 |
| TTGCAGGTGA | 1.7 |
| TTGCAGTTTT | 0.958 |
| TTGCATACTA | 1.13 |
| TTGCATTAGC | 1.09 |
| TTGCCAAGTT | 0.988 |
| TTGCCAATGG | 1.03 |
| TTGCCCGCAC | 2.86 |
| TTGCCCTAAT | 1.01 |
| TTGCCGTACA | 0.992 |
| TTGCCGTCCG | 0.979 |
| TTGCCTAAAA | 0.981 |
| TTGCCTAACA | 1.03 |
| TTGCCTGGGA | 1.02 |
| TTGCCTGTCA | 0.981 |
| TTGCGATTGA | 0.99 |
| TTGCGCTAAC | 1.46 |
| TTGCGGGACG | 1 |
| TTGCGGTACG | 1.05 |
| TTGCGTGGGA | 0.99 |

| Sequence | switch fluorescence ratio |
| --- | --- |
| TTGCTAATAA | 1.22 |
| TTGCTACCGG | 1.04 |
| TTGCTCAGGA | 0.929 |
| TTGCTCCAGG | 1.84 |
| TTGCTCCTTC | 1.09 |
| TTGCTGATAG | 1.01 |
| TTGCTGGTGG | 1.1 |
| TTGCTTAGTA | 0.947 |
| TTGCTTGATT | 1.01 |
| TTGCTTGCTT | 0.977 |
| TTGCTTGGCT | 1.04 |
| TTGCTTTGGT | 0.999 |
| TTGGAAAACA | 1.01 |
| TTGGAAAGAG | 1.05 |
| TTGGAACCCA | 1.07 |
| TTGGACCAC | 1.01 |
| TTGGACGTGC | 1.03 |
| TTGGACTACA | 1.01 |
| TTGGATAAGG | 0.959 |
| TTGGATTCCG | 0.967 |
| TTGGATTT | 1.01 |
| TTGGCAGTC | 1.34 |
| TTGGCCAGG | 1.04 |
| TTGGCCGCAG | 1.08 |
| TTGGCCTGAA | 1.04 |
| TTGGCCTTGT | 0.997 |

| Sequence | switch fluorescence ratio |
| --- | --- |
| TTGGCGGCAT | 0.967 |
| TTGGCGGTGC | 0.997 |
| TTGGCGTACT | 1.04 |
| TTGGCTCTTC | 0.994 |
| TTGGCTGAGT | 1 |
| TTGGCTGTGA | 1.03 |
| TTGGGAGCAA | 6.95 |
| TTGGGAGTCA | 0.99 |
| TTGGGATGCT | 2.9 |
| TTGGGCCCCG | 1.02 |
| TTGGGCCTGC | 1.02 |
| TTGGGCTGAT | 0.975 |
| TTGGGTAACG | 1.01 |
| TTGGGTCCGT | 0.97 |
| TTGGGTCGT | 0.963 |
| TTGGGTGTT | 1.02 |
| TTGGTAACAC | 1.04 |
| TTGGTAAGCT | 1 |
| TTGGTAGTTA | 0.98 |
| TTGGTATTGG | 0.943 |
| TTGGTCTACC | 0.946 |
| TTGGTCTTAA | 1 |
| TTGGTGGCC | 1.01 |
| TTGGTGTAGT | 1.01 |
| TTGGTTAGGC | 0.983 |
| TTGGTTCACG | 0.963 |

| Sequence | switch fluorescence ratio |
| --- | --- |
| TTGGTTCAG | 0.98 |
| TTGGTTCCCA | 1.01 |
| TTGTAAACGT | 1.01 |
| TTGTACCAGG | 1.56 |
| TTGTACGCGC | 1.11 |
| TTGTACGGGA | 1.05 |
| TTGTAGAGCG | 0.956 |
| TTGTAGCTGG | 1.02 |
| TTGTAGGTGG | 1 |
| TTGTATTCTC | 0.977 |
| TTGTCACGTT | 0.972 |
| TTGTCAGCCG | 0.955 |
| TTGTCATATG | 1.04 |
| TTGTCCTTTT | 0.987 |
| TTGTCTGGCA | 0.984 |
| TTGTGAACC | 1.01 |
| TTGTGAAGAT | 0.99 |
| TTGTGACACT | 0.962 |
| TTGTGATAGG | 0.984 |
| TTGTGCCTGC | 1.02 |
| TTGTGCTTGC | 0.986 |
| TTGTGGAAGA | 1.01 |
| TTGTGGATC | 0.98 |
| TTGTGGCAAA | 0.993 |
| TTGTGGGCGG | 0.953 |
| TTGTGTAATA | 1.14 |

| Sequence | switch fluorescence ratio |
| --- | --- |
| TTGTGTCCAC | 0.984 |
| TTGTTCACTA | 1.03 |
| TTGTTCTTGT | 1.01 |
| TTGTTGAG | 0.994 |
| TTGTTGAGCG | 0.986 |
| TTGTTGATGG | 0.998 |
| TTGTTGCGT | 0.983 |
| TTGTTGTAGA | 0.984 |
| TTGTTTCTAA | 1.03 |
| TTGTTTTAAC | 0.974 |
| TTGTTTTAG | 0.972 |
| TTTAAAAGTG | 1.02 |
| TTTAAAGACG | 1.12 |
| TTTAAAGTAG | 1.08 |
| TTTAAATACA | 1.05 |
| TTTAAATGGA | 0.989 |
| TTTAAATGGC | 0.984 |
| TTTAACCCTG | 1.01 |
| TTTAACTGGT | 0.992 |
| TTTAAGTAGA | 1.03 |
| TTTAAGTTAC | 1.07 |
| TTTAATAGGA | 0.999 |
| TTTAATCGGA | 0.964 |
| TTTAATCGTA | 0.964 |
| TTTACAGGCG | 1.01 |
| TTTACCGTAA | 1.26 |

| Sequence | switch fluorescence ratio |
| --- | --- |
| TTTACGAATT | 1.04 |
| TTTACGCCTT | 1.05 |
| TTTACGGCCT | 1.04 |
| TTTACGTGGG | 1.01 |
| TTTACTCAT | 0.983 |
| TTTAGAAGTA | 1.01 |
| TTTAGAGTAA | 1.01 |
| TTTAGATCGC | 1.01 |
| TTTAGCATTC | 1.46 |
| TTTAGCGAAG | 0.976 |
| TTTAGCGATC | 1.55 |
| TTTAGCGGGC | 1.07 |
| TTTAGCTTGG | 1.05 |
| TTTAGGAGG | 0.999 |
| TTTAGGCGAA | 1.04 |
| TTTAGGTCCA | 0.991 |
| TTTAGTAGGC | 0.982 |
| TTTATAGGAC | 0.963 |
| TTTATCAGAG | 1.03 |
| TTTATCCCGT | 0.998 |
| TTTATCGTTA | 1.04 |
| TTTATGACAA | 1 |
| TTTATGGAAA | 1.01 |
| TTTATGGT | 1.02 |
| TTTATGGTAC | 1.06 |
| TTTATTGATC | 1.02 |

| Sequence | switch fluorescence ratio |
| --- | --- |
| TTTCAACTTT | 1.01 |
| TTTCACCATT | 0.974 |
| TTTCACCGGA | 1.05 |
| TTTCAGG | 1.01 |
| TTTCATCGGG | 1.05 |
| TTTCATTGTG | 0.994 |
| TTTCATTTT | 1.01 |
| TTTCCCATGT | 1.08 |
| TTTCCCGGCC | 0.992 |
| TTTCCCTCAC | 1.05 |
| TTTCCCTCAT | 1.06 |
| TTTCCCTTTG | 0.987 |
| TTTCCGAGAT | 1.02 |
| TTTCCGGTC | 1.11 |
| TTTCCTGAAG | 1.07 |
| TTTCGAATAG | 1.05 |
| TTTCGACTCA | 1.03 |
| TTTCGCATTA | 1.69 |
| TTTCGCCCGT | 1 |
